Test results: the supplement of paper PMC9588766
Counter-ions that a name gives are not always drawn. In all, about 1,900 compounds were measured (“cell viability of compound + 1 nM pemigatinib relative to pemigatinib-only (DMSO) wells”: median about 0.95, lowest 2% from about 0.22 on). This is one part of the list.

Tested on: PDC-DUC18828
Assay: cell viability of compound + 1 nM pemigatinib relative to pemigatinib-only (DMSO) wells (fraction); PDC-DUC18828 is a patient-derived cholangiocarcinoma cell line; higher = less growth inhibition
Settings: first compound 1 µM; pemigatinib concentration 1 nM; 72 h
Description: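 Selleck Bioactive library screen in the patient-derived FGFR2 fusion-positive ICC cell line PDC-DUC18828 (500 cells/well). Each compound was tested at 1 uM with 1 nM pemigatinib, in triplicate, for 72 h. Viability was read by CellTiter-Glo and normalised to plate DMSO controls. Value is the paper's averaged normalised viability.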

For `COc1ccc(CC(C)NCC(O)c2ccc(O)c(NC=O)c2)cc1` (stereo unspecified) [Formoterol Hemifumarate] + CCN1C(=O)N(c2c(F)c(OC)cc(OC)c2F)Cc2cnc3[nH]c(CN4CCOCC4)cc3c21 [pemigatinib], which cell viability is on record?
The cell viability was 0.971.

Which cell viability does the source give for `CC(C)C[C@H](NC(=O)[C@H](Cc1ccccc1)NC(=O)c1cnccn1)B(O)O` [Bortezomib (PS-341)] + CCN1C(=O)N(c2c(F)c(OC)cc(OC)c2F)Cc2cnc3[nH]c(CN4CCOCC4)cc3c21 [pemigatinib] here?
The cell viability was 0.0199.

With `Cc1ccc2c(c1)C(=O)C1(O)CCN(c3ccccc3)C1=N2` (single isomer, unassigned; (-)) [(-)-Blebbistatin] + CCN1C(=O)N(c2c(F)c(OC)cc(OC)c2F)Cc2cnc3[nH]c(CN4CCOCC4)cc3c21 [pemigatinib] as the molecule, how does the cell viability read?
The cell viability was 0.998.

With `Oc1c(Br)cc(Br)c2cccnc12` [Broxyquinoline] + CCN1C(=O)N(c2c(F)c(OC)cc(OC)c2F)Cc2cnc3[nH]c(CN4CCOCC4)cc3c21 [pemigatinib] as the molecule, how does the cell viability read?
Its cell viability is 1.06.

For `Nc1ccc2ncnc(NCCc3ccc(Oc4ccccc4)cc3)c2c1` + CCN1C(=O)N(c2c(F)c(OC)cc(OC)c2F)Cc2cnc3[nH]c(CN4CCOCC4)cc3c21 [pemigatinib], which cell viability is on record?
The cell viability was 0.842.

With `CNc1nc(-c2ccc3c(N)n[nH]c3c2)cc(N2C[C@@H](C(=O)NC3CCCCC3)CC[C@H]2C)n1` + CCN1C(=O)N(c2c(F)c(OC)cc(OC)c2F)Cc2cnc3[nH]c(CN4CCOCC4)cc3c21 [pemigatinib] as the molecule, how does the cell viability read?
The cell viability was 0.696.

With `CN1CCN(S(=O)(=O)c2ccc(-c3cnc(N)c(C(=O)Nc4cccnc4)n3)cc2)CC1` + CCN1C(=O)N(c2c(F)c(OC)cc(OC)c2F)Cc2cnc3[nH]c(CN4CCOCC4)cc3c21 [pemigatinib] as the molecule, how does the cell viability read?
The cell viability was 1.03.

Which cell viability does the source give for `COc1ccc(-c2coc3cc(O)ccc3c2=O)cc1` [Formononetin] + CCN1C(=O)N(c2c(F)c(OC)cc(OC)c2F)Cc2cnc3[nH]c(CN4CCOCC4)cc3c21 [pemigatinib] here?
Its cell viability is 0.995.

`c1ccc2c(c1)CCCC2C1=NCCN1` (stereo unspecified) [Tetrahydrozoline HCl] + CCN1C(=O)N(c2c(F)c(OC)cc(OC)c2F)Cc2cnc3[nH]c(CN4CCOCC4)cc3c21 [pemigatinib] was tested. Which cell viability did it give?
The cell viability was 0.909.

`CC[C@]12C=CCN3CC[C@@]4(c5cc([C@@]6(C(=O)OC)C[C@@H]7C[C@@H](C(C)(F)F)CN(Cc8c6[nH]c6ccccc86)C7)c(OC)cc5N(C)[C@H]4[C@@](O)(C(=O)OC)[C@@H]1OC(C)=O)[C@@H]32` [Vinflunine Tartrate] + CCN1C(=O)N(c2c(F)c(OC)cc(OC)c2F)Cc2cnc3[nH]c(CN4CCOCC4)cc3c21 [pemigatinib] was tested. Which cell viability did it give?
Its cell viability is 0.264.

For `CC(C)OC(=O)C(C(=O)OC(C)C)=C1SC=CS1` [Malotilate] + CCN1C(=O)N(c2c(F)c(OC)cc(OC)c2F)Cc2cnc3[nH]c(CN4CCOCC4)cc3c21 [pemigatinib], which cell viability is on record?
The cell viability was 0.974.

For `C1N2CN3CN1CN(C2)C3` [Methenamine] + CCN1C(=O)N(c2c(F)c(OC)cc(OC)c2F)Cc2cnc3[nH]c(CN4CCOCC4)cc3c21 [pemigatinib], which cell viability is on record?
Its cell viability is 0.907.

For `O=C(O)C1=C[C@@H](O)[C@@H](O)[C@H](O)C1` [Shikimic Acid] + CCN1C(=O)N(c2c(F)c(OC)cc(OC)c2F)Cc2cnc3[nH]c(CN4CCOCC4)cc3c21 [pemigatinib], which cell viability is on record?
The cell viability was 0.978.

Which cell viability does the source give for `C=C(C)[C@@H]1CC[C@]2(C(=O)O)CC[C@]3(C)[C@H](CC[C@@H]4[C@@]5(C)CC[C@H](O)C(C)(C)[C@@H]5CC[C@]43C)[C@@H]12` [Betulinic acid] + CCN1C(=O)N(c2c(F)c(OC)cc(OC)c2F)Cc2cnc3[nH]c(CN4CCOCC4)cc3c21 [pemigatinib] here?
Its cell viability is 0.933.

For `CC(C)c1nc(N(C)S(C)(=O)=O)nc(-c2ccc(F)cc2)c1/C=C/[C@@H](O)C[C@@H](O)CC(=O)O` [Rosuvastatin Calcium] + CCN1C(=O)N(c2c(F)c(OC)cc(OC)c2F)Cc2cnc3[nH]c(CN4CCOCC4)cc3c21 [pemigatinib], which cell viability is on record?
Its cell viability is 0.986.

For `CCCCCOc1ccc(-c2ccc(-c3ccc(C(=O)N[C@H]4C[C@@H](O)[C@@H](O)NC(=O)[C@@H]5[C@@H](O)[C@@H](C)CN5C(=O)[C@H]([C@@H](C)O)NC(=O)[C@H]([C@H](O)[C@@H](O)c5ccc(O)cc5)NC(=O)[C@@H]5C[C@@H](O)CN5C(=O)[C@H]([C@@H](C)O)NC4=O)cc3)cc2)cc1` + CCN1C(=O)N(c2c(F)c(OC)cc(OC)c2F)Cc2cnc3[nH]c(CN4CCOCC4)cc3c21 [pemigatinib], which cell viability is on record?
The cell viability was 0.938.

For `CS(=O)(=O)c1ccc([C@@H](O)[C@@H](CF)NC(=O)C(Cl)Cl)cc1` [Florfenicol] + CCN1C(=O)N(c2c(F)c(OC)cc(OC)c2F)Cc2cnc3[nH]c(CN4CCOCC4)cc3c21 [pemigatinib], which cell viability is on record?
The cell viability was 0.975.

For `O=C(COc1cccc2c(=O)[nH]ccc12)c1ccccc1` + CCN1C(=O)N(c2c(F)c(OC)cc(OC)c2F)Cc2cnc3[nH]c(CN4CCOCC4)cc3c21 [pemigatinib], which cell viability is on record?
Its cell viability is 1.02.

`CCNC(=O)[C@H]1O[C@@H](n2cnc3c(N)nc(NCCc4ccc(CCC(=O)O)cc4)nc32)[C@H](O)[C@@H]1O` + CCN1C(=O)N(c2c(F)c(OC)cc(OC)c2F)Cc2cnc3[nH]c(CN4CCOCC4)cc3c21 [pemigatinib] was tested. Which cell viability did it give?
The cell viability was 0.99.

Which cell viability does the source give for `COCCOc1nc(-c2ccc(Cl)c(Cl)c2)n(-c2ccc(NC(=O)CCl)cc2)n1` [MI-2 (MALT1 inhibitor)] + CCN1C(=O)N(c2c(F)c(OC)cc(OC)c2F)Cc2cnc3[nH]c(CN4CCOCC4)cc3c21 [pemigatinib] here?
Its cell viability is 0.802.

With `CC(C(=O)O)c1cccc(Oc2ccccc2)c1` (stereo unspecified) [Fenoprofen calcium hydrate] + CCN1C(=O)N(c2c(F)c(OC)cc(OC)c2F)Cc2cnc3[nH]c(CN4CCOCC4)cc3c21 [pemigatinib] as the molecule, how does the cell viability read?
Its cell viability is 0.882.

How did the cell viability turn out when `CC(C(=O)O)c1cccc(Oc2ccccc2)c1` (stereo unspecified) [Fenoprofen Calcium] + CCN1C(=O)N(c2c(F)c(OC)cc(OC)c2F)Cc2cnc3[nH]c(CN4CCOCC4)cc3c21 [pemigatinib] was run?
Its cell viability is 0.984.

Which cell viability does the source give for `CCCc1ncc(C[n+]2ccccc2C)c(N)n1` [Amprolium HCl] + CCN1C(=O)N(c2c(F)c(OC)cc(OC)c2F)Cc2cnc3[nH]c(CN4CCOCC4)cc3c21 [pemigatinib] here?
The cell viability was 0.976.

`O=C1NC(=O)/C(=C/c2ccc3nccc(-c4ccncc4)c3c2)S1` + CCN1C(=O)N(c2c(F)c(OC)cc(OC)c2F)Cc2cnc3[nH]c(CN4CCOCC4)cc3c21 [pemigatinib] was tested. Which cell viability did it give?
The cell viability was 0.954.

Which cell viability does the source give for `O=C1NC(=O)C(c2ccccc2[N+](=O)[O-])=C1Nc1ccc(O)c(Cl)c1` + CCN1C(=O)N(c2c(F)c(OC)cc(OC)c2F)Cc2cnc3[nH]c(CN4CCOCC4)cc3c21 [pemigatinib] here?
Its cell viability is 0.869.

For `OC[C@H]1OC(O)[C@H](O)[C@@H](O)[C@@H]1O` (stereo partly specified) [Dextrose] + CCN1C(=O)N(c2c(F)c(OC)cc(OC)c2F)Cc2cnc3[nH]c(CN4CCOCC4)cc3c21 [pemigatinib], which cell viability is on record?
The cell viability was 1.01.

For `CC(=O)OCC(=O)NCCCOc1cccc(CN2CCCCC2)c1` [Roxatidine Acetate HCl] + CCN1C(=O)N(c2c(F)c(OC)cc(OC)c2F)Cc2cnc3[nH]c(CN4CCOCC4)cc3c21 [pemigatinib], which cell viability is on record?
The cell viability was 0.96.

For `CCn1cc(C(=O)O)c(=O)c2cc(F)c(N3CCNCC3)nc21` [Enoxacin] + CCN1C(=O)N(c2c(F)c(OC)cc(OC)c2F)Cc2cnc3[nH]c(CN4CCOCC4)cc3c21 [pemigatinib], which cell viability is on record?
Its cell viability is 0.969.

How did the cell viability turn out when `C[C@H](NCc1ccc(OCc2cccc(F)c2)cc1)C(N)=O` [Safinamide Mesylate] + CCN1C(=O)N(c2c(F)c(OC)cc(OC)c2F)Cc2cnc3[nH]c(CN4CCOCC4)cc3c21 [pemigatinib] was run?
The cell viability was 0.993.

How did the cell viability turn out when `OC[C@@H](O)[C@@H](O)[C@H](O)[C@H](O)CO` [D-Mannitol] + CCN1C(=O)N(c2c(F)c(OC)cc(OC)c2F)Cc2cnc3[nH]c(CN4CCOCC4)cc3c21 [pemigatinib] was run?
Its cell viability is 0.933.

`O=C(NC[C@H](O)CO)c1ccncc1Nc1ccc(I)cc1F` + CCN1C(=O)N(c2c(F)c(OC)cc(OC)c2F)Cc2cnc3[nH]c(CN4CCOCC4)cc3c21 [pemigatinib] was tested. Which cell viability did it give?
The cell viability was 0.815.

With `Cc1ccc(-n2nc(C(C)(C)C)cc2NC(=O)NCc2cc(F)ccc2Oc2ccc3c(cnn3CCO)c2)cc1` [Pexmetinib (ARRY-614)] + CCN1C(=O)N(c2c(F)c(OC)cc(OC)c2F)Cc2cnc3[nH]c(CN4CCOCC4)cc3c21 [pemigatinib] as the molecule, how does the cell viability read?
The cell viability was 0.911.

`O=C(Nc1ccc(S(=O)(=O)Nc2ccccc2Cl)c(Cl)c1)c1ccccn1` + CCN1C(=O)N(c2c(F)c(OC)cc(OC)c2F)Cc2cnc3[nH]c(CN4CCOCC4)cc3c21 [pemigatinib] was tested. Which cell viability did it give?
Its cell viability is 1.01.

`Oc1ccc(-c2nc(-c3ccc(F)cc3)c(-c3ccncc3)[nH]2)cc1` + CCN1C(=O)N(c2c(F)c(OC)cc(OC)c2F)Cc2cnc3[nH]c(CN4CCOCC4)cc3c21 [pemigatinib] was tested. Which cell viability did it give?
Its cell viability is 1.02.

Which cell viability does the source give for `Cc1ccc(C(=O)Nc2ccc(CN3CCN(C)CC3)c(C(F)(F)F)c2)cc1C#Cc1cnc2[nH]ncc2c1` + CCN1C(=O)N(c2c(F)c(OC)cc(OC)c2F)Cc2cnc3[nH]c(CN4CCOCC4)cc3c21 [pemigatinib] here?
The cell viability was 0.299.

Which cell viability does the source give for `Cc1ccccc1C(C(=O)NC1CCCCC1)N(C(=O)Cn1ccnc1C)c1cccc(F)c1` (stereo unspecified) + CCN1C(=O)N(c2c(F)c(OC)cc(OC)c2F)Cc2cnc3[nH]c(CN4CCOCC4)cc3c21 [pemigatinib] here?
The cell viability was 1.06.
